Laboratory results as given in the RNAGym collection of RNA variant scans (doi:10.1073/pnas.2313332121).
Variants at the floor of the assay are shown more often than the library holds them.

B1: TPR 5TU (parent)
chain: GGAUCUUCUCGAUCUAACAAAAAAGACAAAUCUGCCACAAAGCUUGAGAGCAUCUUCGGAUGCAGAGGCGGCAGCCUUCGGUGGCGCGAUAGCGCCAACGUUCUCAACUAUGACACGCAAAACGCGUGCUCCGUUGAAUGGAGUUUAUCAUG

Variants of: B1
Test: polymerase ribozyme fitness, log enrichment relative to wild type (log ratio); higher = more active; in vitro selection for triplet polymerase activity
Method in brief: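 Libraries of mutants in each subunit of a heterodimeric triplet polymerase ribozyme were generated by PCR and transcribed. In triplicate, each went through one in vitro selection round: annealing with biotinylated primer, partner subunit and triplets; frozen incubation at −7 °C; gel excision of extended constructs; streptavidin-bead capture; RT-PCR. Fitness, taken from Illumina sequencing of input and output libraries, is the logarithm of a genotype's enrichment over wild-type enrichment, averaged across replicates with inverse-variance weights. The logarithm is base 2, and genotypes needed ≥10 input reads and ≥1 read per output to be kept.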
In the case of GGAUCUUCUCGAUCUAACGAAAAAGACAAAUCUGCCACAAAGCUAGAGAGCAUCUUCGGAUGCAGUGGCAGCAGCCUUCGGUGGCGCGAUUGCGCCAACGUUCUCAACUAUGACACGCAACACGCGUGCUCCGUUGAAUGGAGUUUAUCAUG, the “polymerase ribozyme fitness (log ratio)” value is reported as at most -4.2. With GGAUCUUCUCGAUCUAACGAAAAAGACAAAUCUGCCACAAAGCUUGAGAGCAUCAUUGGAUGCAGAGGCGGCAGCCUUCUGUGGCGCGAUAGCGCCAAUGUUGUCAACUAUGACACGCAAAACGCGUGCUCCGCUGAAUGGAGUUUAUCAUG the “polymerase ribozyme fitness (log ratio)” value was at most -4.2. With GGAUCUUCUCGAUCUAACGAAAAAGACAAAUCUGCCACAAAGCUUGAGAGCAUCUUCGGAUGCAGAGGCGGCAGCCUGCGGUGGCGGGAUAGCGCCAUCGGUCUCAACUAUGACACGCAAAACGCAUGCUCCGUUGAAUGGAGUUUAUCAUG the “polymerase ribozyme fitness (log ratio)” value was at most -4.2. In the case of GGAUCUUCUCGAUCUAACUCAAAAGACAAAUCUGCCACAAAGCUUGAGAGCAUCUUCGGAUGCAGAGGCGGCAGCCUUCGGUGGCGCGAUAGUGCCAACGUUCUCAACUAUGACACUCAAAACGCAUGCUCCGUUGAAUGGAGUUUAUCAUG, the “polymerase ribozyme fitness (log ratio)” value is reported as at most -4.2. With GGAUCUUCUCGAUCUAACUUAAAAGACAAAUCUGCCAUAAAGCUUGAGAGCAACUUCGGAUGCAGAGGCGGCAGCCUUCGGUGGCGCCAUAGCGCCAACGUUCUCAACUAUGACAUGCAAAACGCGUGCUCCGUUCAAUGGAGUUUAACAUG the “polymerase ribozyme fitness (log ratio)” value was at most -4.2. For GGAUCUUCUCGAUCUAACGAAAAAGACAAAUCUGCCACAAAGCAUGAGAGCAGCUUCGGUUGCAGAGGCGGCAGCCUUCGGUGGCGUGAUAGCGCCAUCGUUCUCAACUAUGACACGCAAGACGCGUGCUCCGUUGAAUGGAGUUUAUCAUG, the “polymerase ribozyme fitness (log ratio)” value was at most -4.2. With GGAUCUUCUCGAUCUAACGAAAAAGACAAAUCUGCCACAAAGCUCGAGAGCAUCUUCGGAUGCAGAGGCGGCAGCCUUCGGUGGCGAGAUAGCGCCAGCGUUCUCAACUAUGACACGCAAAACGCGUGCUCCGUUGAAUGGAGUUUAUCAUG the “polymerase ribozyme fitness (log ratio)” value was at most -4.2. For GGAUCUUCUCGAUCUAACGAAAAAGACAAAUCUGCCACAAAGCUUGAGAGCAUCAUCGGAUGCAGAGACGACAGCCUUCGGUGGCGCGAUAGCGCCAACGUUUUCAACUAUGACACGCAAAACGCGUGCUCCGUUGAAUGGAGUUUAUCAUG, the “polymerase ribozyme fitness (log ratio)” value was at most -4.2. For GGAUCUUCUCGAUCUAACGAAAAAGACAAAUCUGCCACAAAGCUAGAGAGCAUCUUAGGAUGCAGAGGCGGCAGCCUUCGGUGGCGCUAUAGCGUCAACGUUCUUAACUAUGACACGCAAAACGCGUGCUCCGUUGAAUGGAGUUUAUCCUG, the “polymerase ribozyme fitness (log ratio)” value was at most -4.2. For GGAUCUUCUCGAUCUAACGAAAAAGACAAAUCUGCCACAAAGCUUGAGAGCAUCUUCGUAUGCAGAGGCGGCAGCCUUCGGUGGUGCGAUAGCGACAACGUUCUCAACUAUGACACGCAAAACGCGUGCUCCGUUGAAUGGAGUUUAUCAUG, the “polymerase ribozyme fitness (log ratio)” value was -1.78. With GGAUCUUCUCGAUCUAACGAAAAAGACAAAUCUGCCACAAAGCUUGAGAGCAUCUUCGGAUGCAGAGUCGGCAGCCUUGGGUGACACGAUAGCGCCAACGUUCUCAACUAUGACACGCAAAACGCGUGCUCCGUCGAAUUGAGUUUAUCAUG the “polymerase ribozyme fitness (log ratio)” value was at most -4.2. For GGAUCUUCUCGAUCUAACGAAAAAGACAAAUCUGCCACAAAGCUUGAGAGCAUCUUCGGAUGCAGAGGCGGCAGCCUUCGGUAGAGCGAUAGCGCUCACGUUCUCAACUAUGACACGCGAAACGCGUGCUCCGUUGAAUGGAGUUUAUCAUG, the “polymerase ribozyme fitness (log ratio)” value was at most -4.2. With GGAUCUUCUCGAUCUAACGAAAAAGACAAAUCUGCCACAAAGCUUGAGAGCAGCUUCGGAUGCAGAGGCGGCAGCCUUCGGUGGCUCGAUAGCGCCAACGUUCUCAACUAUGUCACGCAAAACGCGUGCUCCGUUGAAUGGAGUUUAUCAUG the “polymerase ribozyme fitness (log ratio)” value was at most -4.2. With GGAUCUUCUCGAUCUAACGAAAAAGACAAAUCUGCCACAAAGCGUGACAGCAUCUUCGGAUGCAGAGGCGGCAGCAUUCGGUGGGGCGAUAGCGCCAACGUGCUCAACUAUGACACGCAAAACGCGUGCUGCGUUGAAUGGUGUUUAUCAUG the “polymerase ribozyme fitness (log ratio)” value was at most -4.2. With GGAUCUUCUCGAUCUAACGAAAAAGACAAAUCUGCCACAAAGCUUGAGAGCAUCUUCGGAUGCAGAGGCGGCAGCCUUCGGUGUCGCGAUAGCGCCAACGUUCUCAACUAUGACACGCAAAACGCGUGCUCCGUUGAAUGGAGUUUAUCAUG the “polymerase ribozyme fitness (log ratio)” value was -2.39. For GGAUCUUCUCGAUCUAACGAAAAAGACAAAUCUGCCACAAAGCUUGAGAGCAUCUUCGGAUGCAGAGGCGGCAGCCUUCGGUGGCACGAUAGCGCCAACGUUCUCAACUAUGACACGCAAAACGCGUGCUCCGUUGAAUGGAGUUUAUCAUG, the “polymerase ribozyme fitness (log ratio)” value was -1.36. For GGAUCUUCUCGAUCUAACGAAAAAGACAAAUCUGCCACAAAGCUUGAGAGCAUCUACGGAUGCAGAGGCGCCAGCCUGCGGUGGCGCGAUAGCGCCAACGUGCUCAACUAUGACACGCAAAACGCGUGCUCGGUUGGAUGGAGUUUAUUAUG, the “polymerase ribozyme fitness (log ratio)” value was at most -4.2. For GGAUCUUCUCGAUCUAACGAAAAAGACAAAUCUGCCACAAAGCUUGAGAGCAUCUUCGGAUGCAGAGGCGGCAGCCUUCGGGGGCGCGAUAGCGCCAACGUUCUCAACUAUGACACGCAAAACACGUGCUCCGUUGAAUCGAGUUUAUCAUG, the “polymerase ribozyme fitness (log ratio)” value was -3.62. With GGAUCUUCUCGAUCUAACUACAAAGACAAAUCUGCCACAAAGCUUGAGAGCAUCUUCGGAUGCAGAGGCGGCAGCCUUCGGUGGCGCGAUAGCGCCAACGUUCUCAACUAUGACACGCAAAACGCGUGCUCCGUUGAAUGGAGUUUAUCAUG the “polymerase ribozyme fitness (log ratio)” value was -0.908.
